Results reported in patent US11918574B2, “Method of treating cancer associated with a RAS mutation” (BeyondSpring Pharmaceuticals, Inc., priority 2015, dated 2024).

Experiments:
KMS-27 = test: Single agent CellTiter-Glo cell viability assay, KMS-27; type: cell-based; settings: NRAS (p.Q61R), Human Multiple Myeloma, 72 hours
Experimental: (§1) All cell lines were grown in their respective proper growth media supplemented with 2-10% FBS and were housed in an atmosphere of 5% CO2 at 37° C.
(§2) Cells were plated in growth media in 96-well microtiter plates at a 100 uL volume. Cells were then incubated for 24 hours at 37° C. in a humidified incubator. The test agent (Plinabulin)'s doses were achieved using HP D300 Digital Dispenser. Briefly, the digital dispenser added test agent (Plinabulin) in a DMSO solvent at precise volumes to media containing wells. Control wells received equivolumes of DMSO that test agent (Plinabulin) wells received. Following addition of the test agents, cells were exposed at the concentrations and dilutions described in Table 1 for 72 hours at 37° C. in a humidified incubator. Following 72 hour exposure, Plinabulin and control media were removed and 200 μl of a 1:1 mixture of media and CellTiter-Glo® Reagent was added to each well. The plates were incubated for 60 minutes at 37° C. in a humidified incubator. After incubation, luminescence was recorded using a luminometer.
(§3) Data were expressed as the percent cell growth of the untreated (vehicle) control calculated from the luminescence signals. The surviving fraction of cells was determined by dividing the mean luminescence values of the samples treated with Plinabulin by the mean luminescence values of untreated control. […]

MOLP-8 = test: Single agent CellTiter-Glo cell viability assay, MOLP-8; type: cell-based; settings: NRAS (p.Q61L), Human Multiple Myeloma, 72 hours
Experimental: as §1, §2, §3

MM.1S = test: Single agent CellTiter-Glo cell viability assay, MM.1S; type: cell-based; settings: MM1.S, KRAS (p.G12A), Human Multiple Myeloma, 72 hours
Experimental: as §1, §2, §3

L363 = test: Single agent CellTiter-Glo cell viability assay, L363; type: cell-based; settings: L-363, NRAS (p.Q61H), Human Multiple Myeloma, 72 hours
Experimental: as §1, §2, §3

SNG-M = test: Single agent CellTiter-Glo cell viability assay, SNG-M; type: cell-based; settings: KRAS(p.G12V), Human Endometrial, 72 hours
Experimental: as §1, §2, §3

HEC1a = test: Single agent CellTiter-Glo cell viability assay, HEC1a; type: cell-based; settings: HEC-1-A, KRAS(p.G12D), Human Endometrial, 72 hours
Experimental: as §1, §2, §3

HCT-15 = test: Single agent CellTiter-Glo cell viability assay, HCT-15; type: cell-based; settings: KRAS(p.G13D), Human Colorectal, 72 hours
Experimental: as §1, §2, §3

LoVo = test: Single agent CellTiter-Glo cell viability assay, LoVo; type: cell-based; settings: KRAS(p.G13D), Human Colorectal, 72 hours
Experimental: as §1, §2, §3

HCT116 = test: Single agent CellTiter-Glo cell viability assay, HCT116; type: cell-based; settings: HCT-116, KRAS(p.G13D), Human Colorectal, 72 hours
Experimental: as §1, §2, §3

RXF-393 = test: Single agent CellTiter-Glo cell viability assay, RXF-393; type: cell-based; settings: KRAS(p.D153V), Human Renal, 72 hours
Experimental: as §1, §2, §3

AsPC-1 = test: Single agent CellTiter-Glo cell viability assay, AsPC-1; type: cell-based; settings: ASPC1, KRAS(p.G12D), Human Pancreatic, 72 hours
Experimental: as §1, §2, §3

Capan-2 = test: Single agent CellTiter-Glo cell viability assay, Capan-2; type: cell-based; settings: KRAS(p.G12V), Human Pancreatic, 72 hours
Experimental: as §1, §2, §3

MIA PaCa- 2 = test: Single agent CellTiter-Glo cell viability assay, MIA PaCa-2; type: cell-based; settings: KRAS(p.G12C), Human Pancreatic, 72 hours
Experimental: as §1, §2, §3

[1] = test system: PDGF-induced gliomas that expressed G12D mutant KRAS; test: PDGF-induced glioma GEMM expressing G12D mutant KRAS, survival; type: in vivo, mice
Description: The mouse model of glioma used was a PDGF-driven GEMM of glioma that mimics the proneural molecular subgroup of glioblastoma (GBM). This model was based on somatic cell-specific gene transfer; the replication-competent ALV-splice acceptor (RCAS) retroviral system allowed the instillation of particular genetic alterations within tightly regulated windows of differentiation in a cell type-specific manner. The RCAS/tv-a system employed the RCAS retroviral vector to infect mice genetically engineered to express the RCAS receptor (Iv-a) in specific cell populations. Here, gliomas were generated by RCAS-mediated transfer of PDGF to nestin-expressing cells in the brain. […] PDGF-driven gliomas arose with complete penetrance when combined with Ink4a-arf−/− deletion by 4-5 weeks post-infection. […] The tumor cell structures that define human gliomas, such as Scherer structures, microvascular proliferation and pseudopalisading necrosis were recreated in this GEMM as shown in FIGS. 1a-1d. […]
Plinabulin was tested on Mice with PDGF-induced gliomas that expressed G12D mutant KRAS. […] The mice were entered into a study group and treated with either Plinabulin or Plinabulin diluent as described above while consecutively being monitored for lethargy, hunched posture, appetite loss, outward signs of tumor growth, agitation, weight-loss and overall failure to thrive. […]

[2] = test system: LoVo (KRAS mutation p.G13D) human colon tumor xenograft; settings: for tumor growth inhibition (TGI): Day 15, compared to the vehicle control; for mean body weight loss throughout the study: LoVo xenograft study; for mice that survived to terminal sacrifice: of ten mice
Description: LoVo Human Colon Tumor Xenograft Model: Female Athymic nude mice (Hsd:Athymic Nude-Foxn1nu) were supplied by Harlan (Indianapolis, IN). Mice were received at 4 weeks of age. All mice were acclimated prior to handling. The LoVo human colon tumor cell line was received from ATCC (Manassas, VA). Cultures were maintained in F12-K (Corning/Cellgro, Manassas, VA) supplemented with 10% fetal bovine serum (FBS; Seradigm; Radnor, PA), and housed in a 5% CO2 atmosphere. The cultures were expanded in tissue culture flasks at a 1:3 split ratio until a sufficient amount of cells were harvested. The LoVo human colon tumor cell line had mutations at KRAS p.G13D.
Female mice were inoculated in the subcutaneous right flank with 0.1 ml of a 50% Media/50% Matrigel mixture containing a suspension of LoVo tumor cells (1×10^7 cells/mouse).
Plinabulin vehicle (40% soltol:60% propylene glycol) was diluted in sterile 5% dextrose solution in the same ratio as for plinabulin and was used as a negative control.
Seven days following inoculation, tumors were measured using a digital caliper. The calipers were used to measure width and length diameters of the tumor. The measured values were digitally recorded using animal study management software, Study Director V.2.1.1 (Study Log). Tumor volumes were calculated utilizing the formula: Tumor volume (mm3)=(a×b2/2) where ‘b’ is the smallest diameter and ‘a’ is the largest diameters. […] Tumor volumes and body weights were recorded when the mice were randomized and were taken twice weekly thereafter. Clinical observations were made daily.
At time of necropsy, the tumors were excised and wet weight measurements were recorded as well as a visual assessment of tumor necrosis.
Mean tumor growth inhibition (TGI) was calculated for Day 27. All statistical analyses in the xenograft study were performed with Prism GraphPad® v6.00 software. Differences in Day 27 tumor volumes were confirmed using the Analysis of Variance (ANOVA) test. A one-tailed Student's T-Test with Welch's correction was also used to verify any differences between each group and the vehicle control, and a two-tailed Student's T-Test was used to verify differences between combination groups and their respective single agents.

[3] = test system: A549 (KRAS G12S) human lung tumor xenograft; test: A549 human lung tumor xenograft model; settings: for toxic deaths: A549 xenograft study
[4] = test system: HCT-15 (KRAS mutation G13D; P53 mutation S241F) human colon tumor xenograft; test: HCT-15 human colon tumor xenograft model
[5] = at the dose levels and schedules evaluated

CC(C)(C)c1[nH]cnc1/C=c1\[nH]c(=O)/c(=C/c2ccccc2)[nH]c1=O [Plinabulin, (3Z,6Z)-3-Benzylidene-6-{[5-(2-methyl-2-propanyl)-1H-imidazol-4-yl]methylene}-2,5-piperazinedione] gave an IC50 (KMS-27) of 7.84 nM, an IC50 (MOLP-8) of 4.22 nM and an IC50 (MM.1S) of 19 nM. It also gave an IC50 (L363) of 9.44 nM, an IC50 (SNG-M) of 13.1 nM and an IC50 (HEC1a) of 57.7 nM. It also gave an IC50 (HCT-15) of 13.1 nM, an IC50 (LoVo) of 6.85 nM and an IC50 (HCT116) of 32.8 nM. It also gave an IC50 (RXF-393) of 4.37 nM, an IC50 (AsPC-1) of 16.9 nM and an IC50 (Capan-2) of 10.3 nM. The IC50 (MIA PaCa- 2) was 92.3 nM, the “body weight and symptoms of treated mice” value ([1]; Plinabulin 7.5 mg/kg i.p. two times per week) was “began to gain weight and show improved symptoms within a few days” and the survival rate ([1]; Plinabulin 7.5 mg/kg i.p. two times per week for 10 wks vs Plinabulin diluent control, p=0.001, FIG. 4) was “significantly better survival rate”. For the same compound, the “tumor growth inhibition (TGI)” value [2] was 41.0%, the “mean body weight loss throughout the study” value [2] was “no mean body weight loss” and the “mice that survived to terminal sacrifice” value [2] was “Three out of ten”. The toxic deaths [3] was “no toxic deaths”, the mean weight gain ([3]; Day 11) was 10.6% and the mean weight gain ([3]; Day 22) was 21.8%. For the same compound, the “toxicity as a single agent” value [3, 5] was “no toxicity”, the body weight loss ([4]; HCT-15 xenograft study) was “mild body weight loss” and the tolerability ([4]; HCT-15 xenograft study) was “well-tolerated”. For the same compound, the “toxicity as a single agent” value [4, 5] was “no toxicity”.

For CC(=O)O[C@@]12CO[C@@H]1C[C@H](O)[C@@]1(C)C(=O)[C@H](O)C3=C(C)[C@@H](OC(=O)[C@H](O)[C@@H](NC(=O)OC(C)(C)C)c4ccccc4)C[C@@](O)([C@@H](OC(=O)c4ccccc4)[C@H]21)C3(C)C [Docetaxel, reference compound], the toxic deaths [3] was “no toxic deaths” and the “tumor growth inhibition (TGI)” value ([3]; compared to the vehicle control group, Day 56, Plinabulin 7.5 mg/kg Days 1-5, Docetaxel 12.5 mg/kg i.v. Days 1, 3, 5) was 26.1%.

With CCc1c2c(nc3ccc(OC(=O)N4CCC(N5CCCCC5)CC4)cc13)-c1cc3c(c(=O)n1C2)COC(=O)[C@]3(O)CC [irinotecan, reference compound] the “tumor growth inhibition (TGI)” value [2] was 47.2%, the “maximum body weight loss” value ([2]; Day 20, the final day of the study) was 7.4% and the “mean body weight loss throughout the study” value [2] was “moderate body weight loss”. The “mice that survived to terminal sacrifice” value [2] was “Five out of ten”, the toxic deaths [3] was “no toxic deaths” and the “tumor growth inhibition (TGI)” value ([4]; Day 27, compared to the vehicle negative control group) was 31.8%. The tolerability ([4]; HCT-15 xenograft study) was “well-tolerated” and the toxic deaths ([4]; HCT-15 xenograft study) was “no toxic deaths”.
